{
  "source": "paper PMC6919601",
  "about": "“Identification of Plasmodium dipeptidyl aminopeptidase allosteric inhibitors by high throughput screening” (PLoS ONE, 2019)",
  "note": "In all, about 110,000 compounds went through this assay and about 230 (0.21%) showed an effect of 50% or more. The list shows a part of the results.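 Further: 30 min substrate incubation versus DMSO and 10 µM JCP410 controls.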",
  "data": [
    {"target": "DPAP1 (Plasmodium falciparum, UniProt Q8IIJ9)", "sequence (Q8IIJ9 whole entry, looked up)": "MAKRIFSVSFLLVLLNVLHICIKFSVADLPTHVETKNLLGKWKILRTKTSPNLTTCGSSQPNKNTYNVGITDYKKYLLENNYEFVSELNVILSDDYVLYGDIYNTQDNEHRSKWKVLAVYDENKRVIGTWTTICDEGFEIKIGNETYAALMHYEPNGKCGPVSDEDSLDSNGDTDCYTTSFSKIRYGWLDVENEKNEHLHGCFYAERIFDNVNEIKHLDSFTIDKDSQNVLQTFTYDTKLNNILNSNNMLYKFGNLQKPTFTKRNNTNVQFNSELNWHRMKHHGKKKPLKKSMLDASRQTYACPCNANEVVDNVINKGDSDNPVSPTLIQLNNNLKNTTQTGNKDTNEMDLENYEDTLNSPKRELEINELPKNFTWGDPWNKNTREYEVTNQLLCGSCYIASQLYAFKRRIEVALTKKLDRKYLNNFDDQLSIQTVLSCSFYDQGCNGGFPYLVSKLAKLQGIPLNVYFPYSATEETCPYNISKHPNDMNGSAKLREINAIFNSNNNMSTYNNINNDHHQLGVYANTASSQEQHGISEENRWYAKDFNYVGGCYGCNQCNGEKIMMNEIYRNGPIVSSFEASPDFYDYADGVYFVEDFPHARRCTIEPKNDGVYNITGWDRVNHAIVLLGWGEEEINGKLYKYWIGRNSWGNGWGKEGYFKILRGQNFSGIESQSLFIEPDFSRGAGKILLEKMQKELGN", "experiment": "primary screen, percent inhibition; read by cleavage of a fluorogenic dipeptide substrate; higher = more effect of the substance", "set-up": "species or system P. falciparum D10 trophozoite lysates; single well", "units": {"% Inhibition @ 10 uM": "%"}, "values": [
      {"smiles": "COc1ccc(NC(=O)/C(=C/c2ccc3c(c2)OCO3)NC(=O)c2ccco2)cc1", "% Inhibition @ 10 uM": 1.01},
      {"smiles": "CCC(=O)NC(C)C(c1cccs1)N1CCOCC1", "note": "(stereo not shown)", "% Inhibition @ 10 uM": 2.34},
      {"smiles": "COc1cc(Br)cc2cc(C(=O)NCc3ccc4c(c3)OCO4)c(=O)oc12", "% Inhibition @ 10 uM": -2.5},
      {"smiles": "CCOC(=O)C1=C(C)N=c2s/c(=C/c3ccc(C)o3)c(=O)n2C1c1cccs1", "note": "(stereo not shown)", "% Inhibition @ 10 uM": -1.2},
      {"smiles": "Cc1ccc(Cn2nnc3c(=O)n(CC(=O)NCc4ccccc4)cnc32)cc1", "% Inhibition @ 10 uM": -2.16},
      {"smiles": "COc1c(Cl)cnn(-c2ccccc2)c1=O", "% Inhibition @ 10 uM": -6.5},
      {"smiles": "CCSc1snc(O)c1C#N", "% Inhibition @ 10 uM": 1.72},
      {"smiles": "COc1cc2c(cc1OC)C(C(=O)NCCCN1CCOCC1)C(c1cccnc1)N(C)C2=O", "note": "(stereo not shown)", "% Inhibition @ 10 uM": -2.12},
      {"smiles": "CCOC(=O)c1sc2nc(C)cc(C)c2c1N", "% Inhibition @ 10 uM": -0.197},
      {"smiles": "Cn1cccc1Cc1nnc(SCC(N)=O)n1-c1ccc(F)cc1", "% Inhibition @ 10 uM": -3.95},
      {"smiles": "COc1ccc(OC)c(CCNC(=O)c2sc(-n3cccc3)nc2C)c1", "% Inhibition @ 10 uM": 2.65},
      {"smiles": "O=C(NCCc1ccccc1)c1ccc(CNC(=O)c2ccc(Br)cc2)cc1", "% Inhibition @ 10 uM": -5.64},
      {"smiles": "CN1C(=O)CC(C(=O)Nc2ccccc2)S/C1=N\\c1ccc(Br)cc1", "note": "(stereo not shown)", "% Inhibition @ 10 uM": 4.05},
      {"smiles": "Cc1cccn2c(=O)c3cc(C#N)c(=O)n(-c4nnc(SCc5ccccc5Cl)s4)c3nc12", "% Inhibition @ 10 uM": -4.07},
      {"smiles": "Cc1ccc2nc(Cl)c3cc(C(=O)NCC4CCCO4)sc3c2c1", "note": "(stereo not shown)", "% Inhibition @ 10 uM": -1.7},
      {"smiles": "COc1ccccc1NC(=O)C1=C(C)N=C2CCCC(O)=C2C1c1ccc(F)cc1", "note": "(stereo not shown)", "% Inhibition @ 10 uM": -2.77},
      {"smiles": "CCn1cc(CNC(=O)c2cnn3c(C(F)F)cc(-c4ccc(OC)cc4)nc23)cn1", "% Inhibition @ 10 uM": -3.53},
      {"smiles": "Cc1cccc2c1-c1sc(C(=O)N3CCCCC3C)cc1CO2", "note": "(stereo not shown)", "% Inhibition @ 10 uM": -4.85},
      {"smiles": "COc1ccc(CCNC(=O)c2noc3c2CCCCC3)cc1OC", "% Inhibition @ 10 uM": -4.43},
      {"smiles": "Cn1nc(C(=O)NCc2cccnc2)c2c1-c1ccccc1SC2", "% Inhibition @ 10 uM": 36.1},
      {"smiles": "CS(=O)(=O)N(CC(=O)N1CCN(c2ccc(F)cc2)CC1)Cc1ccccc1", "% Inhibition @ 10 uM": 3.29},
      {"smiles": "CC(C)OP(=O)(OC(C)C)C(Nc1ccccc1)c1c[nH]c2ccccc12", "note": "(stereo not shown)", "% Inhibition @ 10 uM": -0.215},
      {"smiles": "CC(/C=C1\\N=C(c2ccc(C)cc2)OC1=O)=C\\c1ccccc1", "% Inhibition @ 10 uM": -5.03},
      {"smiles": "CCCCCCOC(=O)C1=C(C)NC(=O)NC1c1ccccc1", "note": "(stereo not shown)", "% Inhibition @ 10 uM": 20.4},
      {"smiles": "CCOc1cccc(OCC)c2c(C)[n+](C)c(C)c1-2", "% Inhibition @ 10 uM": -0.85},
      {"smiles": "COc1ccc(CN2CCCC(O)C2)c(OC)c1", "note": "(stereo not shown)", "% Inhibition @ 10 uM": 3.01},
      {"smiles": "COc1ccc(NC(=O)c2c(NC(=O)c3cccnc3)sc3c2CCC3)cc1", "% Inhibition @ 10 uM": -2.98},
      {"smiles": "Oc1cc(-c2ccccc2)nc2nc(NCc3ccc(Cl)cc3)nn12", "% Inhibition @ 10 uM": 1},
      {"smiles": "O=C(O)c1ccccc1NC(=O)c1c(C(=O)O)cccc1[N+](=O)[O-]", "% Inhibition @ 10 uM": -1.42},
      {"smiles": "O=C(Nc1nccs1)c1ccc2c(c1)C(=O)N(c1cccc(C(=O)c3ccccc3)c1)C2=O", "% Inhibition @ 10 uM": 5.04},
      {"smiles": "CC(=O)c1c(C(C)=O)c(C)n(Cc2ccc(Cl)cc2)c1C", "% Inhibition @ 10 uM": -9.53},
      {"smiles": "O=C(CSc1nc(O)c2nc[nH]c2n1)NCc1ccccc1", "% Inhibition @ 10 uM": -4.95},
      {"smiles": "O=C1NC(c2ccc(Cl)cc2)Oc2ccccc21", "note": "(stereo not shown)", "% Inhibition @ 10 uM": 3.24},
      {"smiles": "COc1ccc(Cl)c(NCCC(=O)O)c1", "% Inhibition @ 10 uM": -3.48},
      {"smiles": "O=S(=O)(c1ccc(Br)cc1)N1CCSC1c1ccco1", "note": "(stereo not shown)", "% Inhibition @ 10 uM": 1.61},
      {"smiles": "O=C(Nc1ccc(Br)cc1)C1Cc2ccccc2CN1S(=O)(=O)c1cccs1", "note": "(stereo not shown)", "% Inhibition @ 10 uM": -1.95},
      {"smiles": "CCOc1ccc(C2c3c(oc4ccc(C)cc4c3=O)C(=O)N2c2nccs2)cc1", "note": "(stereo not shown)", "% Inhibition @ 10 uM": 3.73},
      {"smiles": "CNC(=O)C(NC(=O)c1ccc(C)cc1)C12CC3CC(CC(C3)C1)C2", "note": "(stereo not shown)", "% Inhibition @ 10 uM": 5.93},
      {"smiles": "CC1(C)CC(=O)C(/C=N/C2CCCC2)=C(O)C1", "% Inhibition @ 10 uM": 8.01},
      {"smiles": "CC(=O)C1=C(O)C(=O)N(CCCN2CCOCC2)C1c1ccc(Cl)cc1Cl", "note": "(stereo not shown)", "% Inhibition @ 10 uM": -5.08},
      {"smiles": "CCOc1cccc(C2C(C(=O)OC)=CN(C)C=C2C(=O)OC)c1", "% Inhibition @ 10 uM": -3.23},
      {"smiles": "CCOCCCNC(=O)Cc1ccc(Br)cc1", "% Inhibition @ 10 uM": 0.13},
      {"smiles": "Cc1cccc(NC(=O)CCSc2nc(C)cc(C)n2)c1", "% Inhibition @ 10 uM": -7.3},
      {"smiles": "COc1cccc2c1cc1c(=O)n(CC(=O)NC(C)C34CC5CC(CC(C5)C3)C4)nc(C)n12", "note": "(stereo not shown)", "% Inhibition @ 10 uM": 4.84},
      {"smiles": "CCN(CC)c1c(S(=O)(=O)c2ccc(Cl)cc2)cnc2ccc(OC)cc12", "% Inhibition @ 10 uM": -1.06},
      {"smiles": "COc1ccc(CNC2C3CC4CC(C3)CC2C4)cc1C", "note": "(stereo not shown)", "% Inhibition @ 10 uM": -0.582},
      {"smiles": "CCOc1ccccc1-c1nn2c(-c3ccc(F)cc3)nnc2s1", "% Inhibition @ 10 uM": 2.89},
      {"smiles": "N#Cc1c(N)n(CCO)c2nc3ccccc3nc12", "% Inhibition @ 10 uM": 2.33},
      {"smiles": "O=C1C2C3c4ccccc4C(c4ccccc43)C2C(=O)N1Cc1cccnc1", "note": "(stereo not shown)", "% Inhibition @ 10 uM": 1.87},
      {"smiles": "Cc1cc(/C=C2/NC(=O)N(Cc3ccccc3F)C2=O)c(C)n1C", "% Inhibition @ 10 uM": -10.8},
      {"smiles": "O=C(COc1ccc(Br)cc1)Nc1ccc(F)cc1", "% Inhibition @ 10 uM": 0.247},
      {"smiles": "O=C(NCCN1CCOCC1)c1cnn(-c2ccc(F)cc2F)c1C1CCNCC1", "% Inhibition @ 10 uM": -4.21},
      {"smiles": "CC(C)Oc1ccccc1/C=C1\\Cc2ccccc2C1=O", "% Inhibition @ 10 uM": 10.1},
      {"smiles": "N=C1/C(=C\\c2coc3ccccc3c2=O)C(=O)N=C2SC(Cc3ccc(Cl)cc3)=NN12", "% Inhibition @ 10 uM": -7.65},
      {"smiles": "OC1=C2C(=Nc3nc4ccccc4n3C2c2ccc(F)cc2)CCC1", "note": "(stereo not shown)", "% Inhibition @ 10 uM": -3.37},
      {"smiles": "CCCc1nnc(NC(=O)C(=O)c2c[nH]c3ccccc23)s1", "% Inhibition @ 10 uM": 2.32},
      {"smiles": "CCC1CCCCN1CCCNc1cnnc2c(Cl)cccc12", "note": "(stereo not shown)", "% Inhibition @ 10 uM": -0.884},
      {"smiles": "Cc1ccc2oc(Nc3nc(C)cc(O)n3)nc2c1", "% Inhibition @ 10 uM": -2.39},
      {"smiles": "O=C(Nc1ccc2oc(-c3ccccc3Br)nc2c1)c1cccc2ccccc12", "% Inhibition @ 10 uM": 2.6},
      {"smiles": "c1ccc2nc(-c3nc4ccccc4s3)ccc2c1", "% Inhibition @ 10 uM": 1.74},
      {"smiles": "Cc1ccc(C(C)C)c(OCc2nnnn2-c2ccccc2)c1", "% Inhibition @ 10 uM": -2.85},
      {"smiles": "Cc1cccc(CN2C(=O)N/C(=C/c3cc(C)n(-c4ccc(S(N)(=O)=O)cc4)c3C)C2=O)c1", "% Inhibition @ 10 uM": -1.74},
      {"smiles": "COc1cc(C(=O)Nc2cccc(NC(=O)c3cc(F)c(F)cc3Cl)c2)cc(OC)c1OC", "% Inhibition @ 10 uM": 8.6},
      {"smiles": "COc1ccc(C(=O)N2CCN(Cc3cc(OC)c(O)c(OC)c3)CC2)cc1OC", "% Inhibition @ 10 uM": 1.28}
    ]}
  ]
}
